Assay results from the supplement of paper PMC3334620.
The full ranking holds about 33,000 sequences; the median of “E-score (-0.5 to 0.5)” is about -0.056, and the highest 2% start at about 0.38. This is one part of the list.

The sequences below were run against Stb4 (UniProt P50104) (assay: PBM E-score (8-mer binding enrichment) (E-score (-0.5 to 0.5)); higher = stronger / more preferred TF binding; most listed sequences are background and not binding sites). Details: protein concentration: 200 nM; construct: GST-DNA-binding domain.
Method in brief: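 Yeast transcription factors carrying a GST tag, as full-length proteins or DNA-binding domains, were produced by PURExpress in vitro transcription/translation. About 100-200 nM protein was applied to universal all-10-mer Agilent arrays, double-stranded by primer extension on fresh or once-stripped slides. Bound protein was detected with fluorescent anti-GST, and scans were normalised with masliner. The Universal PBM Analysis Suite gave each ungapped eight-base word, pooled with its reverse complement, an E-score, a modified Wilcoxon-Mann-Whitney statistic.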
For ATCACAGC, the “PBM E-score” value was -0.0153.
With AATGGGCC the “PBM E-score” value was 0.0391.
ACCGGTCG was tested, and the “PBM E-score” value was 0.0835.
With CTGTCATA the “PBM E-score” value was -0.259.
CCCATCAC was tested, and the “PBM E-score” value was -0.151.
In the case of CGAGAAGC, the “PBM E-score” value is reported as 0.0689.
For CCCTGATC, the “PBM E-score” value was 0.0808.
For ACAGAACA, the “PBM E-score” value was -0.141.
In the case of ACTCCGCA, the “PBM E-score” value is reported as 0.0719.
CCTGCTAC was tested, and the “PBM E-score” value was -0.106.
For GCTAAATA, the “PBM E-score” value was -0.175.
For CTATCTTA, the “PBM E-score” value was -0.0301.
CAAATGTA was tested, and the “PBM E-score” value was -0.016.
CCGGGTGC was tested, and the “PBM E-score” value was 0.313.
In the case of CTCAACAG, the “PBM E-score” value is reported as -0.203.
For AGGTTACT, the “PBM E-score” value was 0.0938.
In the case of CAATATCA, the “PBM E-score” value is reported as -0.134.
With GTCAGAAC the “PBM E-score” value was -0.0619.
In the case of CAGCGGAA, the “PBM E-score” value is reported as 0.236.
With GGAGTTAC the “PBM E-score” value was 0.142.
CCGACCCG was tested, and the “PBM E-score” value was 0.407.
With GACGATTA the “PBM E-score” value was -0.0954.
For GAAGACGC, the “PBM E-score” value was -0.1.
With CACCCCGG the “PBM E-score” value was 0.163.
For AATCACAC, the “PBM E-score” value was 0.122.
In the case of AAAATCTT, the “PBM E-score” value is reported as 0.00936.
In the case of AGAGGGAG, the “PBM E-score” value is reported as -0.191.
With CTTAGACC the “PBM E-score” value was -0.199.
ACCGGCAC was tested, and the “PBM E-score” value was 0.281.
For ACAGTGAG, the “PBM E-score” value was -0.254.
For CCTTCCAC, the “PBM E-score” value was -0.0187.
For AATTACCT, the “PBM E-score” value was -0.14.
With CTTAGCTC the “PBM E-score” value was -0.0849.
For GGGCATTA, the “PBM E-score” value was -0.0753.
In the case of GCTCACTA, the “PBM E-score” value is reported as -0.134.
In the case of CTTCCATA, the “PBM E-score” value is reported as -0.122.
For CAGGAAGG, the “PBM E-score” value was -0.208.
With CAGGTAGA the “PBM E-score” value was -0.135.
In the case of ACCCCAGT, the “PBM E-score” value is reported as -0.174.
For AGATGATG, the “PBM E-score” value was -0.0541.
With GTCGTTTA the “PBM E-score” value was -0.034.
In the case of GGGGGGCA, the “PBM E-score” value is reported as -0.256.
GGCCGTTA was tested, and the “PBM E-score” value was 0.17.
GGCTAGCC was tested, and the “PBM E-score” value was 0.0852.
AGTTAACG was tested, and the “PBM E-score” value was -0.0609.
With ACGGGCTG the “PBM E-score” value was -0.109.
TGACCCCA was tested, and the “PBM E-score” value was -0.0526.
For CAGTCTAA, the “PBM E-score” value was -0.0962.
With TCGGTAGA the “PBM E-score” value was 0.363.
CGCGGTTC was tested, and the “PBM E-score” value was 0.115.
For TAAGCGTA, the “PBM E-score” value was -0.172.
For GAGGCACA, the “PBM E-score” value was -0.0729.
AGGAGGCG was tested, and the “PBM E-score” value was -0.149.
ACTTGTAC was tested, and the “PBM E-score” value was -0.117.
For CCTCTTCC, the “PBM E-score” value was 0.0657.
With ATGGTAGC the “PBM E-score” value was 0.00743.
With GACGAACC the “PBM E-score” value was 0.0535.
In the case of TACCCTCA, the “PBM E-score” value is reported as -0.153.
With GCCCAGTA the “PBM E-score” value was -0.0725.
In the case of AGGGGCTC, the “PBM E-score” value is reported as -0.194.
CCAGCGCA was tested, and the “PBM E-score” value was -0.138.
GTTACAAA was tested, and the “PBM E-score” value was -0.00155.
AAGGTACC was tested, and the “PBM E-score” value was 0.0589.
ACCCGTAG was tested, and the “PBM E-score” value was 0.13.
For ACAACCTC, the “PBM E-score” value was -0.114.
CGCTTATC was tested, and the “PBM E-score” value was -0.0429.
In the case of CAGGGGCG, the “PBM E-score” value is reported as -0.182.
In the case of ATCGCAAG, the “PBM E-score” value is reported as -0.109.
AACGACCT was tested, and the “PBM E-score” value was -0.0159.
CATTGCGG was tested, and the “PBM E-score” value was 0.129.
CTGTGTGA was tested, and the “PBM E-score” value was -0.051.
For GCGTGTGA, the “PBM E-score” value was -0.207.
TTCATGAA was tested, and the “PBM E-score” value was -0.162.
In the case of AGCCTGCA, the “PBM E-score” value is reported as -0.0179.
With CTATATAG the “PBM E-score” value was -0.279.
In the case of ATTGCCGA, the “PBM E-score” value is reported as 0.451.
For AGAATGGA, the “PBM E-score” value was -0.0768.
In the case of CTTCCCCA, the “PBM E-score” value is reported as -0.178.
In the case of CCAATTTA, the “PBM E-score” value is reported as 0.0809.
In the case of CCAGTAAC, the “PBM E-score” value is reported as 0.0754.
With AACGCCTC the “PBM E-score” value was -0.151.
In the case of GGTGTACA, the “PBM E-score” value is reported as -0.145.
For CTAAAGTA, the “PBM E-score” value was -0.235.
With GCCCCGAA the “PBM E-score” value was 0.31.
For CAGCTCTA, the “PBM E-score” value was -0.128.
With CTATGATA the “PBM E-score” value was -0.0468.
AAGTTCCG was tested, and the “PBM E-score” value was 0.434.
GTGCAGGA was tested, and the “PBM E-score” value was -0.18.
For AAACGGGA, the “PBM E-score” value was 0.246.
AAAAATCG was tested, and the “PBM E-score” value was 0.0452.
For AAGCTCCT, the “PBM E-score” value was -0.188.
For ACTTCTTA, the “PBM E-score” value was -0.0853.
In the case of TACTGAGA, the “PBM E-score” value is reported as -0.123.
For CAGCGCGA, the “PBM E-score” value was -0.265.
